{
  "sequences": {"note": "Chains of the proteins cited; added tags and fusions are not shown.", "UniProt Q9Y4B6": "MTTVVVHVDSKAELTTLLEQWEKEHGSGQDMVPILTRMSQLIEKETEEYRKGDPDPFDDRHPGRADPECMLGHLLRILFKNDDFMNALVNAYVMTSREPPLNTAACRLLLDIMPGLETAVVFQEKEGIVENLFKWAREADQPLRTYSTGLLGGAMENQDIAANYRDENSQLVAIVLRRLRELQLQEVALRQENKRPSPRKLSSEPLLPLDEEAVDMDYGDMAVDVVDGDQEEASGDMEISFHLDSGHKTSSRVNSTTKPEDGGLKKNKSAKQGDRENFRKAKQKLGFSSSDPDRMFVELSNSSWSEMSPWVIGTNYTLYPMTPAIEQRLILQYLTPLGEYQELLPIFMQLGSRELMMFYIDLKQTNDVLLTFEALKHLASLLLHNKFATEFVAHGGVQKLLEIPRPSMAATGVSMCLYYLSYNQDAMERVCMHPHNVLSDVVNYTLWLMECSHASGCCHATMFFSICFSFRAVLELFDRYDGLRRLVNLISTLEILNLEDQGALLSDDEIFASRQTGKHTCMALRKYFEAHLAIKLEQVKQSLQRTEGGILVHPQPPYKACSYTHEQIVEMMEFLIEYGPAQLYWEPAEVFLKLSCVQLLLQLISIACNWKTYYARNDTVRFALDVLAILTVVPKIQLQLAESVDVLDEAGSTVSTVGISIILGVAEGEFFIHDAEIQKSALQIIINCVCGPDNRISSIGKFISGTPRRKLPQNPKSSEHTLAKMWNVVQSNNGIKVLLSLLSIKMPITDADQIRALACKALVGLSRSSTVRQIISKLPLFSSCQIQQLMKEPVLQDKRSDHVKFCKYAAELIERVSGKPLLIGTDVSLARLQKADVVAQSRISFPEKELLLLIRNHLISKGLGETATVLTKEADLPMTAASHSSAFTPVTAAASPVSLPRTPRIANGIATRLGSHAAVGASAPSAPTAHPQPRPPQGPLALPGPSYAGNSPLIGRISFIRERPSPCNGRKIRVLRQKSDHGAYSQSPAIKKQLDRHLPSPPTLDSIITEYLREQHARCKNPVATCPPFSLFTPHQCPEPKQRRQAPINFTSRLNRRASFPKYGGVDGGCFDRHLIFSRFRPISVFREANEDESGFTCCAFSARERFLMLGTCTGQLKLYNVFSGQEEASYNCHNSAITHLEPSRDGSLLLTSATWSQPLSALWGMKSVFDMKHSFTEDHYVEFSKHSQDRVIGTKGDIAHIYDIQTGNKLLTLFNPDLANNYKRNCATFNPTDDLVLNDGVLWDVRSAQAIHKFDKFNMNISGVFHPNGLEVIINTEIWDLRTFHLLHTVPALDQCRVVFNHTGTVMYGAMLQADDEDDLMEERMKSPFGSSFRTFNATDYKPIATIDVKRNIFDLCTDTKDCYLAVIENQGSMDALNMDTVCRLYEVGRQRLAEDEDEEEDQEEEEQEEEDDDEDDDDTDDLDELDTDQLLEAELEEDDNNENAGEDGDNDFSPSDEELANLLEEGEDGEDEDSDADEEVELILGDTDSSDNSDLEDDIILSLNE", "UniProt P12520": "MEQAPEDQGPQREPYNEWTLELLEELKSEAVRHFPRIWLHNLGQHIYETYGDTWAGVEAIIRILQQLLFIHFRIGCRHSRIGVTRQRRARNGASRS", "UniProt P05928": "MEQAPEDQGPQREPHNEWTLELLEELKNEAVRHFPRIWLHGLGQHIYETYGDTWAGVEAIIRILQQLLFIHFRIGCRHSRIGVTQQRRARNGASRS", "UniProt Q16531": "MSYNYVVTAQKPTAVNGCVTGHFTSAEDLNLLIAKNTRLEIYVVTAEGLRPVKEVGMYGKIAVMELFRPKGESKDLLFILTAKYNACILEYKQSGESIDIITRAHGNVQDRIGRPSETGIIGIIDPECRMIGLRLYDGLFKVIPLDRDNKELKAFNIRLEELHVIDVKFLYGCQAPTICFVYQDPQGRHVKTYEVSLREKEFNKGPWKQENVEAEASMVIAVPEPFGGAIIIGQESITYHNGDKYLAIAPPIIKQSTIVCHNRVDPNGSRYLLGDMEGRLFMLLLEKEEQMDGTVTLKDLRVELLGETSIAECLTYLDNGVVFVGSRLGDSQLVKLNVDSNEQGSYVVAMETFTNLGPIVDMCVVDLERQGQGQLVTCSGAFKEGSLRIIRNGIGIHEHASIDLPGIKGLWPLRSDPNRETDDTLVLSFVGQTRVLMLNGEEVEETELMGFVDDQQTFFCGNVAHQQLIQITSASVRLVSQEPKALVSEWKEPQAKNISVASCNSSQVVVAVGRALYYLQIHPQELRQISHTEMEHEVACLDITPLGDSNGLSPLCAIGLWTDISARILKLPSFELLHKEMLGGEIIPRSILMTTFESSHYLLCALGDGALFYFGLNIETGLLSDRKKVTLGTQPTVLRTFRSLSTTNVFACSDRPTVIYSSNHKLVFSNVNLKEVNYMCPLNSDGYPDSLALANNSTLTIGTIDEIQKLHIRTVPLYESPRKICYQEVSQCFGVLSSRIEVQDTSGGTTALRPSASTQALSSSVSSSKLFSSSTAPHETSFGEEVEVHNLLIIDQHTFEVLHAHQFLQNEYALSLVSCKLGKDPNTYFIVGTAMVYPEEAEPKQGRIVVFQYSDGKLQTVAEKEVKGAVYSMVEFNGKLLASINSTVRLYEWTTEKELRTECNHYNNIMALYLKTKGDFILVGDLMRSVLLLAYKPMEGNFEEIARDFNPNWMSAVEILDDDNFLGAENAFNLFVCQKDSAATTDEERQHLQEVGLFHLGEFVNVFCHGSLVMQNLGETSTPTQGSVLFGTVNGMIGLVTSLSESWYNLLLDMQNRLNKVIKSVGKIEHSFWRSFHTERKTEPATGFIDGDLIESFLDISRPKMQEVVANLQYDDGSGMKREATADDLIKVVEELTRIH"},
  "source": "paper PMC10914751",
  "key": {"[1]": {"molecular_target": "T1, full-length Plk4 (transfected) (UniProt O00444)", "T1 sequence": "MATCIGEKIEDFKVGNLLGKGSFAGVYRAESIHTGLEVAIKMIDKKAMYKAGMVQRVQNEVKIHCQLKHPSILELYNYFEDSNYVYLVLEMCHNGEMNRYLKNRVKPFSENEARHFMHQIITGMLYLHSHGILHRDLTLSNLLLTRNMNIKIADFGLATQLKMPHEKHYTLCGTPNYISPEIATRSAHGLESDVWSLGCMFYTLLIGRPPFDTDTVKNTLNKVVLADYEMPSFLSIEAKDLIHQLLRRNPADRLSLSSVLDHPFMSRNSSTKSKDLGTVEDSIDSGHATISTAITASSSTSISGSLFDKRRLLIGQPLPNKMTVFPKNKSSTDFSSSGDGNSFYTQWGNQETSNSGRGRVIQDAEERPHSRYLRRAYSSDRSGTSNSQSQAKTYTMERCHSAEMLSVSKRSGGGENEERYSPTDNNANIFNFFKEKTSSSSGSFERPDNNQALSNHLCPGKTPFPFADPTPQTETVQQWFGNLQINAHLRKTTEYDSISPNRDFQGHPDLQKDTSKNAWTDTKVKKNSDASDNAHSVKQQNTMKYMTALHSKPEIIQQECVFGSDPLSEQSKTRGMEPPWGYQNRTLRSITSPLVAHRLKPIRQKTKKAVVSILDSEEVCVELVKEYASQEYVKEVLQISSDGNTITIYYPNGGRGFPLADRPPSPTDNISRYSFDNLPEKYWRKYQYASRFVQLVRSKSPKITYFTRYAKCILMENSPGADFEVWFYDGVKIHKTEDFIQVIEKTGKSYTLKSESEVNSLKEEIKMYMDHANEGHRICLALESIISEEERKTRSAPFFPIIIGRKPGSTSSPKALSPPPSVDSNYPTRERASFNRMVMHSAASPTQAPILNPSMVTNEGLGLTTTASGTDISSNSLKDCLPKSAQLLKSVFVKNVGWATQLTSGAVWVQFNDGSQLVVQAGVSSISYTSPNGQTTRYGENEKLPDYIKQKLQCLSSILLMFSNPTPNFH", "assay": "co-IP; HEK293T cells transfected with the indicated constructs; TBSN buffer (20 mM Tris-HCl pH 8.0, 120 mM NaCl, 0.5% Nonidet P-40, 5 mM EGTA, 1.5 mM EDTA, 2 mM DTT); immunoblot; Supplementary Fig. 2b under thymidine or nocodazole treatment"}, "[2]": {"molecular_target": "T2, Plk4 CTD (transfected, Fig. 2b) (UniProt O00444)", "T2 sequence": "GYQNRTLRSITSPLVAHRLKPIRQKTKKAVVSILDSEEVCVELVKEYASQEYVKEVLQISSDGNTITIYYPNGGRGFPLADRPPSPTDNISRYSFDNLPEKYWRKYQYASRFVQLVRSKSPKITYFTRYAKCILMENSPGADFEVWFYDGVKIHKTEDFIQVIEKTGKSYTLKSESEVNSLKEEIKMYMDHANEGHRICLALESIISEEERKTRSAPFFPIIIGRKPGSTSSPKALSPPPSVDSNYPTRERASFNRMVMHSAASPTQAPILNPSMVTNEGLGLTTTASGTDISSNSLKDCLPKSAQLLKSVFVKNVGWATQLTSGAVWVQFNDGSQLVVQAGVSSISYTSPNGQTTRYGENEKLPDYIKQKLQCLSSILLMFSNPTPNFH", "assay": "co-IP; HEK293T cells transfected with the indicated constructs; TBSN buffer (20 mM Tris-HCl pH 8.0, 120 mM NaCl, 0.5% Nonidet P-40, 5 mM EGTA, 1.5 mM EDTA, 2 mM DTT); immunoblot; Supplementary Fig. 2b under thymidine or nocodazole treatment"}, "[3]": {"molecular_target": "T3, Plk4 (endogenous) (human (endogenous in HEK293T, CEM-SS, HEK293)) (UniProt O00444)", "T3 sequence": "T1 sequence", "assay": "co-IP"}, "[4]": {"molecular_target": "T3, Plk4 (endogenous) (human (endogenous in HEK293T, CEM-SS, HEK293))", "assay": "co-IP; CEM-SS cells infected with HIV-1 and treated with 200 nM centrinone for 3 h; endogenous Plk4 precipitated with mouse anti-Plk4 (6H5) antibody; immunoblot"}},
  "note": "These are yes or no findings as the source states them, for the method shown. Binding seen in cells or lysates may run through a third protein. Some entries that bind do so weakly or less than the wild type.",
  "data": [
    {"substance": "VprBP (transfected; construct not specified in the text) (from UniProt Q9Y4B6 1-1507)", "values": [
      {"measurement": "binding", "setting": "[1]", "result": "binds"}
    ]},
    {"substance": "HIV-1 Vpr (NL4-3), transfected (from UniProt P12520 1-96)", "values": [
      {"measurement": "binding", "setting": "[1]", "result": "binds"}
    ]},
    {"substance": "full-length VprBP (transfected) (from UniProt Q9Y4B6 1-1507)", "values": [
      {"measurement": "binding", "setting": "[2]", "result": "binds"}
    ]},
    {"substance": "FLAG-Vpr (Lai strain) (from UniProt P05928 1-96)", "values": [
      {"measurement": "binding", "setting": "[1]", "result": "binds"}
    ]},
    {"substance": "DDB1 (co-immunoprecipitation in HEK293T) (from UniProt Q16531 1-1140)", "values": [
      {"measurement": "binding", "setting": "[1]", "result": "binds"}
    ]},
    {"substance": "Vpr expressed from lentiviruses in HEK293 cells (from UniProt P12520 1-96)", "values": [
      {"measurement": "binding", "setting": "[3]", "result": "binds"}
    ]},
    {"substance": "VprBP (endogenous) (from UniProt Q9Y4B6 1-1507)", "values": [
      {"measurement": "binding", "setting": "[3]", "result": "binds"},
      {"measurement": "binding", "setting": "[4]", "result": "binds"}
    ]},
    {"substance": "Vpr expressed from HIV-1 in infected CEM-SS cells (from UniProt P12520 1-96)", "values": [
      {"measurement": "binding", "setting": "[4]", "result": "binds"}
    ]}
  ]
}
